From PMC3576711
No constants are given. Whether binding was seen depends on the method and setting. In cells and extracts the contact can be indirect. Some entries that bind do so weakly or less than the wild type. Sequences can lack the tags named with a protein. Values belong to the binder of their own block, whether it stands above or below them.

Tests used:
[1] = target: T1, UNC93B1-WT, C-terminal 3x FLAG tag (3d iMac cells) (mouse) (UniProt Q8VCW4); assay: co-IP; FLAG tagged UNC93B1 precipitated with anti-FLAG matrix from 3d iMac cells expressing TLR9-HA, 1% digitonin; immunoblot with anti-FLAG and anti-HA
T1 sequence: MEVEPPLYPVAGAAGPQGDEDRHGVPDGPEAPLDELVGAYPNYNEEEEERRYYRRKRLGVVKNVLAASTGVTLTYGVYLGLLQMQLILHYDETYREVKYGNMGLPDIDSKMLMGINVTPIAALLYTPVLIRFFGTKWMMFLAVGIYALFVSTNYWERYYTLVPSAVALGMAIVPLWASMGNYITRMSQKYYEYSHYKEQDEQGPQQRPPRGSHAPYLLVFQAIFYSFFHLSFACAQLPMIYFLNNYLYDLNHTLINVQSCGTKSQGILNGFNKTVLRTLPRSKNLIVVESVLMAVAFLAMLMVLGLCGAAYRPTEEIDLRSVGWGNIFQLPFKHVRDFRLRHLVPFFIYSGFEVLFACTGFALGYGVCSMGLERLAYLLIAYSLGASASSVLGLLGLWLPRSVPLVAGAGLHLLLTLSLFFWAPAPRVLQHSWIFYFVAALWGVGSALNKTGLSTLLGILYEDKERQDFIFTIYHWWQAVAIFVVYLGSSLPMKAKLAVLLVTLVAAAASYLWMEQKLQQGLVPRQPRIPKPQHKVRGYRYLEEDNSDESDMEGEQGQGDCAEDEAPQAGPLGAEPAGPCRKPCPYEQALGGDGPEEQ

[2] = target: T2, UNC93B1-WT, C-terminal eGFP tag (3d iMac cells) (mouse) (UniProt Q8VCW4); assay: co-IP; GFP-tagged UNC93B1 immunoprecipitated from 3d iMac cells expressing TLR7-HA; immunoblot with anti-HA and anti-GFP
T2 sequence: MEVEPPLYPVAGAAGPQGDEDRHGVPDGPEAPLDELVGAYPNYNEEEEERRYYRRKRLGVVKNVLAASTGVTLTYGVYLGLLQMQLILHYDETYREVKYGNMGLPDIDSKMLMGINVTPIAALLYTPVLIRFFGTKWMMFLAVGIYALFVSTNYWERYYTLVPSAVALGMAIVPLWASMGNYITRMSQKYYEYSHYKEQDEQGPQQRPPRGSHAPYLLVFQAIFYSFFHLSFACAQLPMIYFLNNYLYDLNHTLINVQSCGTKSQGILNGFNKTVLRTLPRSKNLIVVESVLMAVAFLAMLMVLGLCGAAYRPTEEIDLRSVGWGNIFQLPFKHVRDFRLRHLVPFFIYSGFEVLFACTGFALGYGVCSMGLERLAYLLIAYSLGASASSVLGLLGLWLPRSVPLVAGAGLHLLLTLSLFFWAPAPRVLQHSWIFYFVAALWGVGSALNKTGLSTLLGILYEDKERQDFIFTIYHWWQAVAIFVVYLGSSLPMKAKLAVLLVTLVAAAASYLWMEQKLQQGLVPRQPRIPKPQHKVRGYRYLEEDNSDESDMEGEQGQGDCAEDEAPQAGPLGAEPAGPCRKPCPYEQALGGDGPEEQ

[3] = target: T3, TLR9-HA, full-length forms (ER and Golgi-modified precursor) (UniProt Q9EQU3); assay: co-IP; 3d iMac cells expressing TLR9-HA, TLR7-V5-His and WT UNC93B1-GFP lysed in TNT buffer, incubated with anti-HA matrix or anti-V5 protein A/G beads; immunoblot with HA, GFP and V5 antibodies
T3 sequence: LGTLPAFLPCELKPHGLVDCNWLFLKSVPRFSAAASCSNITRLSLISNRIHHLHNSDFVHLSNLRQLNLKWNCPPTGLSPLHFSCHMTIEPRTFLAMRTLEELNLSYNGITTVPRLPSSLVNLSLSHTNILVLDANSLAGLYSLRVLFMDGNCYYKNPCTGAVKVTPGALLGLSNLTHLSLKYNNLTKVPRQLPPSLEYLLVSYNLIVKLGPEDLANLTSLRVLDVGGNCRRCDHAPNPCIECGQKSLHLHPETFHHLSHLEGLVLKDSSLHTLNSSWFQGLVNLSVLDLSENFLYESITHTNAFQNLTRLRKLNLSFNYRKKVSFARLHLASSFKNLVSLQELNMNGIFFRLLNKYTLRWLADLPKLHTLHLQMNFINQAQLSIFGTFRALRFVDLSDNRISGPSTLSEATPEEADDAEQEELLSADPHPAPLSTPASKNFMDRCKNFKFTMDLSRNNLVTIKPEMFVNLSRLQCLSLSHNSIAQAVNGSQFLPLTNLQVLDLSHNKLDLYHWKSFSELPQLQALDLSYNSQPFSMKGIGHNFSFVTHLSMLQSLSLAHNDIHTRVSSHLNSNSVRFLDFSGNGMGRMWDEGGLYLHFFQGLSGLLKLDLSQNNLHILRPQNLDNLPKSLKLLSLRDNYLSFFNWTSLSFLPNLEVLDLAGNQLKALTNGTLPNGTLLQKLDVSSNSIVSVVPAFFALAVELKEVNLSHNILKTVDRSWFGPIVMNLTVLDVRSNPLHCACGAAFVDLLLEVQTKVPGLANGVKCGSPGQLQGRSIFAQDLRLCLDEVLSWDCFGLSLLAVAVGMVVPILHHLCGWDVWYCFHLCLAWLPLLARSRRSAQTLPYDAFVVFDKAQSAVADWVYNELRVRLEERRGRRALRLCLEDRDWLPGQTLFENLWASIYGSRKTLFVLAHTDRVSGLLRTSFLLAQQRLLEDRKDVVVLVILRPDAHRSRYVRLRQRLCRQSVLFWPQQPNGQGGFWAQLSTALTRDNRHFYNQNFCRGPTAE

binding [1]: binds
B1: TLR9-HA, full-length forms (ER and Golgi-modified precursor) (receptor, UniProt Q9EQU3 26-1032)
chain: LGTLPAFLPCELKPHGLVDCNWLFLKSVPRFSAAASCSNITRLSLISNRIHHLHNSDFVHLSNLRQLNLKWNCPPTGLSPLHFSCHMTIEPRTFLAMRTLEELNLSYNGITTVPRLPSSLVNLSLSHTNILVLDANSLAGLYSLRVLFMDGNCYYKNPCTGAVKVTPGALLGLSNLTHLSLKYNNLTKVPRQLPPSLEYLLVSYNLIVKLGPEDLANLTSLRVLDVGGNCRRCDHAPNPCIECGQKSLHLHPETFHHLSHLEGLVLKDSSLHTLNSSWFQGLVNLSVLDLSENFLYESITHTNAFQNLTRLRKLNLSFNYRKKVSFARLHLASSFKNLVSLQELNMNGIFFRLLNKYTLRWLADLPKLHTLHLQMNFINQAQLSIFGTFRALRFVDLSDNRISGPSTLSEATPEEADDAEQEELLSADPHPAPLSTPASKNFMDRCKNFKFTMDLSRNNLVTIKPEMFVNLSRLQCLSLSHNSIAQAVNGSQFLPLTNLQVLDLSHNKLDLYHWKSFSELPQLQALDLSYNSQPFSMKGIGHNFSFVTHLSMLQSLSLAHNDIHTRVSSHLNSNSVRFLDFSGNGMGRMWDEGGLYLHFFQGLSGLLKLDLSQNNLHILRPQNLDNLPKSLKLLSLRDNYLSFFNWTSLSFLPNLEVLDLAGNQLKALTNGTLPNGTLLQKLDVSSNSIVSVVPAFFALAVELKEVNLSHNILKTVDRSWFGPIVMNLTVLDVRSNPLHCACGAAFVDLLLEVQTKVPGLANGVKCGSPGQLQGRSIFAQDLRLCLDEVLSWDCFGLSLLAVAVGMVVPILHHLCGWDVWYCFHLCLAWLPLLARSRRSAQTLPYDAFVVFDKAQSAVADWVYNELRVRLEERRGRRALRLCLEDRDWLPGQTLFENLWASIYGSRKTLFVLAHTDRVSGLLRTSFLLAQQRLLEDRKDVVVLVILRPDAHRSRYVRLRQRLCRQSVLFWPQQPNGQGGFWAQLSTALTRDNRHFYNQNFCRGPTAE

binding [2]: binds
B2: TLR7-HA, full-length form (receptor, UniProt P58681 27-1050)
chain: FRWFPKTLPCEVKVNIPEAHVIVDCTDKHLTEIPEGIPTNTTNLTLTINHIPSISPDSFRRLNHLEEIDLRCNCVPVLLGSKANVCTKRLQIRPGSFSGLSDLKALYLDGNQLLEIPQDLPSSLHLLSLEANNIFSITKENLTELVNIETLYLGQNCYYRNPCNVSYSIEKDAFLVMRNLKVLSLKDNNVTAVPTTLPPNLLELYLYNNIIKKIQENDFNNLNELQVLDLSGNCPRCYNVPYPCTPCENNSPLQIHDNAFNSLTELKVLRLHSNSLQHVPPTWFKNMRNLQELDLSQNYLAREIEEAKFLHFLPNLVELDFSFNYELQVYHASITLPHSLSSLENLKILRVKGYVFKELKNSSLSVLHKLPRLEVLDLGTNFIKIADLNIFKHFENLKLIDLSVNKISPSEESREVGFCPNAQTSVDRHGPQVLEALHYFRYDEYARSCRFKNKEPPSFLPLNADCHIYGQTLDLSRNNIFFIKPSDFQHLSFLKCLNLSGNTIGQTLNGSELWPLRELRYLDFSNNRLDLLYSTAFEELQSLEVLDLSSNSHYFQAEGITHMLNFTKKLRLLDKLMMNDNDISTSASRTMESDSLRILEFRGNHLDVLWRAGDNRYLDFFKNLFNLEVLDISRNSLNSLPPEVFEGMPPNLKNLSLAKNGLKSFFWDRLQLLKHLEILDLSHNQLTKVPERLANCSKSLTTLILKHNQIRQLTKYFLEDALQLRYLDISSNKIQVIQKTSFPENVLNNLEMLVLHHNRFLCNCDAVWFVWWVNHTDVTIPYLATDVTCVGPGAHKGQSVISLDLYTCELDLTNLILFSVSISSVLFLMVVMTTSHLFFWDMWYIYYFWKAKIKGYQHLQSMESCYDAFIVYDTKNSAVTEWVLQELVAKLEDPREKHFNLCLEERDWLPGQPVLENLSQSIQLSKKTVFVMTQKYAKTESFKMAFYLSHQRLLDEKVDVIILIFLEKPLQKSKFLQLRKRLCRSSVLEWPANPQAHPYFWQCLKNALTTDNHVAYSQMFKETV

binding [3]: no binding
B3: TLR7-V5-His (receptor, UniProt P58681 27-1050)
chain: FRWFPKTLPCEVKVNIPEAHVIVDCTDKHLTEIPEGIPTNTTNLTLTINHIPSISPDSFRRLNHLEEIDLRCNCVPVLLGSKANVCTKRLQIRPGSFSGLSDLKALYLDGNQLLEIPQDLPSSLHLLSLEANNIFSITKENLTELVNIETLYLGQNCYYRNPCNVSYSIEKDAFLVMRNLKVLSLKDNNVTAVPTTLPPNLLELYLYNNIIKKIQENDFNNLNELQVLDLSGNCPRCYNVPYPCTPCENNSPLQIHDNAFNSLTELKVLRLHSNSLQHVPPTWFKNMRNLQELDLSQNYLAREIEEAKFLHFLPNLVELDFSFNYELQVYHASITLPHSLSSLENLKILRVKGYVFKELKNSSLSVLHKLPRLEVLDLGTNFIKIADLNIFKHFENLKLIDLSVNKISPSEESREVGFCPNAQTSVDRHGPQVLEALHYFRYDEYARSCRFKNKEPPSFLPLNADCHIYGQTLDLSRNNIFFIKPSDFQHLSFLKCLNLSGNTIGQTLNGSELWPLRELRYLDFSNNRLDLLYSTAFEELQSLEVLDLSSNSHYFQAEGITHMLNFTKKLRLLDKLMMNDNDISTSASRTMESDSLRILEFRGNHLDVLWRAGDNRYLDFFKNLFNLEVLDISRNSLNSLPPEVFEGMPPNLKNLSLAKNGLKSFFWDRLQLLKHLEILDLSHNQLTKVPERLANCSKSLTTLILKHNQIRQLTKYFLEDALQLRYLDISSNKIQVIQKTSFPENVLNNLEMLVLHHNRFLCNCDAVWFVWWVNHTDVTIPYLATDVTCVGPGAHKGQSVISLDLYTCELDLTNLILFSVSISSVLFLMVVMTTSHLFFWDMWYIYYFWKAKIKGYQHLQSMESCYDAFIVYDTKNSAVTEWVLQELVAKLEDPREKHFNLCLEERDWLPGQPVLENLSQSIQLSKKTVFVMTQKYAKTESFKMAFYLSHQRLLDEKVDVIILIFLEKPLQKSKFLQLRKRLCRSSVLEWPANPQAHPYFWQCLKNALTTDNHVAYSQMFKETV
